Results as given in the supplement of paper PMC3334620.
Over roughly 33,000 sequences, “E-score (-0.5 to 0.5)” has its median near -0.036; the highest 2% begin near 0.37. The list shows a part of the results.

Biological target: T1, Yer064c (UniProt P40041)
T1 sequence: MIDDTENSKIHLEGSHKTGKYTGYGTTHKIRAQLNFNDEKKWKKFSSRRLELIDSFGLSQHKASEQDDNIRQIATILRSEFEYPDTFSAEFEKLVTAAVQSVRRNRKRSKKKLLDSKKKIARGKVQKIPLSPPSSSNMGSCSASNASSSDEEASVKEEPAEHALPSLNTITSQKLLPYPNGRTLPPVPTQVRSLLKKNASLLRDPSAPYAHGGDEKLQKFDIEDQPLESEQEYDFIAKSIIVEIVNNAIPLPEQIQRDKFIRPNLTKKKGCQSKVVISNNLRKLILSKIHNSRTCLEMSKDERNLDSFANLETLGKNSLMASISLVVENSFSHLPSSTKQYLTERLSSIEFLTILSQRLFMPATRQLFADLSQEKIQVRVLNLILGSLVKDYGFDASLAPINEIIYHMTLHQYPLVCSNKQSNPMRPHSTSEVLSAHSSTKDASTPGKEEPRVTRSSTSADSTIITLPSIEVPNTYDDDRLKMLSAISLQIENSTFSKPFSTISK
Experiment: PBM E-score (8-mer binding enrichment) (E-score (-0.5 to 0.5)); higher = stronger / more preferred TF binding; most listed sequences are background and not binding sites
Settings: protein concentration: 200 nM; construct: GST-full length
Method: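 Universal 'all 10-mer' protein binding microarrays (Agilent AMADID 015681) probed with GST-tagged S. cerevisiae TFs (full-length or DBD) made by in vitro transcription/translation (PURExpress), about 100-200 nM. Bound TF was detected with fluorescent anti-GST. Each ungapped 8-mer (which stands for itself and its reverse complement) is scored by the PBM enrichment score (E-score), a modified Wilcoxon-Mann-Whitney statistic from -0.5 to +0.5, computed with the Universal PBM Analysis Suite. Scale: above 0.35 generally sequence-specific binding.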

Sequence	PBM E-score
CGGCGGAC	-0.166
TACAGAGA	-0.169
CGTTCCAG	-0.241
ACTTGGGG	-0.191
GCAACTGC	-0.0982
CCAGAGAA	-0.0846
AATGCCCA	-0.0865
GCCCATTA	-0.0541
ATCTCGGC	-0.00132
ACAATAAG	-0.00139
GACAAACC	-0.0461
CAAAAAAC	0.079
CTGGTATA	-0.118
TATTGCGA	0.0167
ACCGAGTA	-0.0874
TCCCGCCA	-0.196
GGCTTATA	-0.184
CTATTTAC	-0.0226
AATCACGC	0.391
ATTGGGCG	-0.166
GAGCTGAA	-0.0826
ATATATTG	-0.0832
CGAGAGAC	0.0137
CAATCCGC	-0.104
AATGCAAG	0.0671

Sequence	PBM E-score
CGTCTCAC	-0.0322
CGTAGGTC	-0.0734
TGGTAAAA	0.0782
ACTAAGAT	0.338
GCGAGTGA	0.106
AACATCAA	0.0691
ACTTCTCC	0.0225
ATAGAGGG	-0.145
ATACCTAT	-0.0579
CAAGCCTG	-0.118
ATGTTGCC	-0.203
GCGTTCAC	-0.113
ACTACAGT	0.233
AGCGGCCC	-0.314
AAATGCGT	-0.152
TCATGTAA	0.197
ATTTGTAC	0.225
CATAGACA	0.0961
GAGTCTGA	0.323
CATTCCTC	-0.0253
AAGATTAA	0.321
GAAACCTA	-0.188
GACCCTTA	-0.128
AAGCTACA	-0.0866
CATCACGC	0.0572

Sequence	PBM E-score
ATGCTTAA	-0.0286
ATTAGGTC	0.0776
AGCACTTA	-0.00499
GTTGTTCA	-0.0244
TAGTACTA	0.132
ACCGCCGG	-0.151
GAATTAAA	-0.0487
CTACGTTA	0.0321
GGTCTCAA	0.109
ATTATTAG	0.242
CCCAACAA	-0.136
CGACACAG	0.0959
AGCATGCT	-0.245
CCTAAACC	-0.123
CTAGATCC	-0.152
GTCGTCAC	0.142
ACGGTGAA	0.00671
GCCTGTGA	-0.00963
CAAACTTA	-0.0307
ATTTTGGG	0.0393
CACATACA	0.0609
CACCACGG	-0.284
GCTCTGCA	-0.221
AAGCTTAA	0.0226
GGTCGTCA	0.00372

Sequence	PBM E-score
AACTACCA	-0.104
CTAAACCC	0.0794
TTCTCAAA	0.0907
CCAGTTTC	-0.166
CACCCAGG	-0.0382
TCCAAGAA	0.0927
CCACGGAG	0.00248
AAGCTAAG	-0.218
CAGATTAC	0.173
ACGATGTA	0.0608
CAGGGTCC	-0.159
CGATGATA	0.0426
CATAGCTC	0.111
CGAGCGTA	0.0278
ACAGTGGA	0.0503
CGTCTCAG	0.123
AAAGATCG	-0.112
CTTAATAC	0.107
ACCTCTCC	-0.178
GAAGGGAA	-0.156
AACTCGAG	0.123
GAATTTGA	-0.0204
GAGAATCC	-0.141
TAAGACTA	0.423
CGGAGAAC	-0.236

Sequence	PBM E-score
CAGGGAAG	-0.305
TACGCTCA	-0.0807
GCGTCCAA	-0.308
GTGATAAA	0.105
CTTCAATA	0.133
TAGCACAA	0.124
TGGCGAAA	-0.0782
GTACAGTA	-0.0541
AACAGTGA	-0.0624
TTACGCAA	0.157
CAGAAAGG	-0.186
CCCCCGCA	-0.326
AGTCACAG	0.467
CTGTGTTC	0.0489
AACGCATA	-0.121
CGATGGCA	-0.405
CGCAATAG	0.045
ACCGACGG	-0.186
CAATACCC	0.011
TCCGAAGA	0.0783
AATTGTAA	0.0266
AGCCCAGC	-0.256
ACAGGGAA	-0.1
GTCCACGA	-0.147
AGCTAATC	0.206

Sequence	PBM E-score
TAGCCAGA	0.0824
ACGCTCGC	0.0112
AGAGTCTG	0.147
GGAGCTAC	-0.214
GTACTCGA	0.0683
GAGATCTA	-0.134
CATATGAA	-0.0378
TGTTACAA	0.0483
CCCAAGCG	-0.016
AACTTGTA	-0.0723
GCCCACCA	-0.335
CTTTGGTA	-0.0864
ATTAACAC	0.267
AGGAACGG	-0.36
CATAACAG	-0.114
CTTAAAGA	0.169
TAGACGAA	0.101
GAGTGTCA	0.0868
AGAGTGCA	-0.157
AAGAACCC	-0.128
CCCAATAC	-0.168
ACCATAAA	0.134
ATTTACCC	-0.0205
GGAGTGTA	-0.0455
ATACCGTG	-0.00791

Sequence	PBM E-score
CAATCCCG	0.0705
GAAGCACA	-0.0534
GCACGTGA	-0.0918
AACTTAAC	0.0853
ACTACTTG	0.247
ATTTCTAC	-0.0155
CCCCGGGG	-0.29
AAGAATCA	0.392
CATTAACG	0.0806
GGTTGAAC	0.0486
ACCTGGGC	-0.215
ATCCGCTA	-0.0564
CATTCAGA	0.0564
GCGTGTCC	-0.0669
ACACATGT	0.194
CCTGATTC	0.399
ATTAAGAC	0.208
CGCATAAA	0.094
ATATCACG	-0.122
GCACTCAA	-0.117
ACCCCGGA	-0.115
TGTACACA	0.142
AGCACCGA	-0.0273
ATACTGGA	-0.0743
AAAGTGCT	0.156

Sequence	PBM E-score
AAAAGGCA	0.112
CAACCACA	0.0653
AAAGGATT	0.0622
CTGACAAA	-0.0397
GGTGTTGA	0.0901
ATAGCCTG	0.0506
AAGCCCAG	-0.282
AAGGCAAT	0.0533
ACATAGAC	0.0983
GACTGCAA	0.264
ACACATCC	0.241
CGCCCCGC	-0.15
TCCAATAA	0.0134
AACGTACT	0.136
CTAGAGTC	0.366
CGAGTGCG	-0.014
AGAGACTC	0.386
CTAAAGCA	0.104
AAGGCATC	-0.296
GTGTAAAC	0.0831
ATCAGGTG	0.145
ATGTATCG	0.0252
ACCGGGGA	-0.246
ACGTTTGG	-0.156
ACACTGCA	-0.0727

Sequence	PBM E-score
TGAGATCA	0.0875
AAGACGAC	0.142
AGCCAACC	-0.138
CTTCTTCC	-0.14
AGAAAGGA	-0.0694
ATTTAACA	0.226
ACCAGAAC	0.0565
AATCAAAT	0.23
ATACTCAT	0.371
GAGAGGAA	-0.0878
CGCGTCAG	-0.188
CGGAAAAA	-0.0589
AACTGTGG	-0.0242
CCAATTCC	-0.194
ATTATCGC	0.119
ATGGACAA	0.0469
AGGGTATG	-0.017
AGGCAGGC	-0.303
CATTTTGG	-0.116
GATACACA	0.147
CTAAATCA	0.337
AGAAATAG	0.00239
GTACCCGA	-0.0616
CTCTCCGA	-0.117
ACACTGCT	-0.0282

Sequence	PBM E-score
AGCGATTG	-0.0217
ACTGAGAG	0.0323
TGCCAGAA	-0.0788
GAGAAGAA	-0.0149
ACGGTACG	0.0345
TACTTGCA	-0.0641
GCCCGTCC	-0.234
ACTTCTAA	0.122
GTGGCATA	-0.194
AGGTTCTG	-0.128
CCTACATA	-0.152
GGGTCTGA	-0.0087
AGTCGAAA	0.282
GTAAATAA	0.0204
TAGTTTCA	0.196
GACAGTCA	0.409
AGTAGCTC	-0.176
ATATGCCG	-0.209
CACCTCGG	-0.0538
TACATGAA	0.0413
GGAACTCC	-0.216
ACTGGACT	0.113
GTATCCTA	-0.195
GACATAAA	0.0495
GTCCTGTA	0.113

Sequence	PBM E-score
AGGACATA	0.00548
CACAGACG	0.0852
CTCGGCAG	-0.108
AAGTGCGT	-0.063
CCGGGTGA	0.176
GCATAAAA	0.00233
AAGCACCT	-0.2
ATATTGGC	-0.228
CACCTGCG	-0.121
AACGTTCG	-0.115
CGTCCCGC	-0.0717
ACTCGTGA	0.305
AAGCTTTG	-0.0898
AAGATAGC	-0.142
ATGTGAGC	0.00993
TCAGGTCA	0.0552
CTTCTAGA	0.0143
ACCGTCCC	0.0283
GAAAGAGA	0.0896
AACTTCCG	0.0922
ATCCGCTG	0.0009
ATGCAGTA	-0.0989
ACTTTAAT	0.107
ACGGAGCG	-0.0547
AACAGAAT	-0.0213

Sequence	PBM E-score
GTATTCAA	0.087
AAGTATTA	0.0874
TAGTCCGA	0.339
GCTCAGCA	0.067
GACCAAAC	-0.169
ACACCCGC	-0.134
AATAGGTG	-0.123
ACCCCTAC	-0.083
AAAAACAT	0.00993
AGCCCTAT	-0.154
CTTACACC	-0.0859
CTTGGACA	-0.0882
CGTAGAAA	-0.01
GAAACTTA	0.00118
CAGTCGCC	0.254
TGAACCCA	0.0604
AGGAAGCA	-0.157
AGATTCAT	0.295
AGTTTTTA	0.0774
CAAGTGGA	-0.178
CCTGAGGA	0.00765
AATCTGGT	-0.0281
CACAACAA	-0.0531
CGTACTAC	-0.0626
AGCCGGAT	-0.0486

Sequence	PBM E-score
AAACTTTA	-0.0221
ATAGGCTG	0.0794
AGCCTTGC	-0.217
ACTATGTC	0.26
AGTCAGGG	0.439
GCTTCGAC	-0.126
ACGTAGGG	-0.216
GAGGATCA	0.173
CGAGCAGC	-0.0962
TGCGGCCA	-0.199
AGATGGAA	-0.0748
AATTTAGT	0.363
GTGGTTGA	0.123
AAGGCGTA	-0.221
CGGTTCGC	-0.159
CCAAATGG	-0.0901
CCTAGGTA	-0.158
AGGCTCAG	0.102
GGCGGAAA	-0.269
ATACCCCC	-0.305
CGGGAAAC	-0.0906
CCCCTTTA	-0.109
CGGTCGTC	-0.0631
ACCATGGT	0.265
ACTCTGAG	0.209

Sequence	PBM E-score
GAGAACCA	-0.0378
CACGGGAA	-0.119
CCCCCACC	-0.414
ATACTCTC	0.00838
CCCAGACG	-0.316
GCTACGCC	-0.224
GAGGGAAA	-0.222
ATCTCTTG	-0.108
CTCCCATA	-0.162
AGGGCACT	-0.364
CCGTAACC	0.0426
ATTGCAGA	0.0849
ACAGCCAC	0.0513
CACCCTGG	-0.137
CCTCATGC	-0.144
ATCGTCCG	0.00381
AAATTCAT	0.0587
ACTTCATG	0.00651
CACCCGTA	-0.0573
